# According to the RNAGym collection of RNA variant scans (doi:10.1073/pnas.2313332121):
# This sample is rich in variants without activity.
# B1: TPR 5TU (parent)
# chain: GGAUCUUCUCGAUCUAACAAAAAAGACAAAUCUGCCACAAAGCUUGAGAGCAUCUUCGGAUGCAGAGGCGGCAGCCUUCGGUGGCGCGAUAGCGCCAACGUUCUCAACUAUGACACGCAAAACGCGUGCUCCGUUGAAUGGAGUUUAUCAUG
# Variants of: B1
# Assay: polymerase ribozyme fitness, log enrichment relative to wild type (log ratio); higher = more active; in vitro selection for triplet polymerase activity
# Outline: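 Frozen incubation at −7 °C formed the core of a single, triplicate in vitro selection round applied to PCR-built, transcribed mutant libraries of each subunit of a heterodimeric triplet polymerase ribozyme. Extended constructs were gel-excised, captured with streptavidin beads and amplified by RT-PCR, and input and output libraries were Illumina-sequenced with a filter of ≥10 input reads and ≥1 read per output. Fitness is the logarithm of genotype enrichment relative to wild-type enrichment, with inverse-variance-weighted replicate averaging, and the logarithm is base 2.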
row,Variant,polymerase ribozyme fitness (log ratio)
1,U55A U56A A89C U109C C132G,≤ -4.2
2,C54U A91U G126A U146G,≤ -4.2
3,C54U U55A G88U G94A U101G U135A A137U,≤ -4.2
4,C54A G94A A138U U145G,≤ -4.2
5,C54A C125U,-3.73
6,C54G C95A,-1.74
7,U53A C79G G83A G100A A121C,≤ -4.2
8,C54A U55A A106G G141A G143C C149G,≤ -4.2
9,U55A A73G C75G C96G C103A C105A U146A,≤ -4.2
10,U55A G68A A73C C95G,≤ -4.2
11,C54A U61G,-1.82
12,C54U C87G,≤ -4.2
13,U55G G70A A97G U151G,≤ -4.2
14,U53A C118G U144C,-1.81
15,U53A C76G U90C U145C,≤ -4.2
16,U55A C63U C85U C103A A138U U139A,≤ -4.2
17,C54U U55A U77G A91U A137C,≤ -4.2
18,U55A A107C C125A,≤ -4.2
19,U53A C76G,≤ -4.2
20,U55A G59C G94U A107C,≤ -4.2
21,C54A C96G C103U C116A G136U,-4.12
22,C54U C149U,-0.259
23,U55A G59C G80C G83C A107G C132A,≤ -4.2
24,C54A U55G G92A,≤ -4.2

row,Variant,polymerase ribozyme fitness (log ratio)
1,C54G C87U C95A C96U G133U,≤ -4.2
2,C54U U56A G128U G133U U145G,≤ -4.2
3,U53A G59A A60C A107G A121G U146A,≤ -4.2
4,C54A C96G U139A U151G,≤ -4.2
5,U53A G133A U135C G136U A147C,≤ -4.2
6,U53A C54U,-0.319
7,U55A A73C C99U A106C,≤ -4.2
8,U55A U61G C76A C103A A122G,≤ -4.2
9,C54G A64C C93G U104A G141A U144G,≤ -4.2
10,U53A C85U,-1.4
11,C54U C76G G84U U101C,≤ -4.2
12,C54A G88U,≤ -4.2
13,C54A G92A A110U C116U G133C,≤ -4.2
14,C54U C76A C79U G84A U102G U148A U151C,≤ -4.2
15,C54U G58C C87G A89U C116U U148G,≤ -4.2
16,C54A G58C,-1.45
17,U53A G59A G84U U109C U134A,≤ -4.2
18,C54U U77C G84A U109C,≤ -4.2
19,U55A A60G,0.676
20,U55A A91G U134A,-4.01
21,C54U C75G U78C C79A G80U,≤ -4.2
22,U53A U148G,-4.01
23,U53A C54U G70U G86U,≤ -4.2
24,U55A G100A,≤ -4.2

row,Variant,polymerase ribozyme fitness (log ratio)
1,C54A C57G,-3
2,U55A C57U G84A G141C,-0.559
3,U55G C57G U61C U77A U148C,≤ -4.2
4,U55A C93G G141C,-3.82
5,U53G A60G C87A,≤ -4.2
6,C54U C69A U144C,-3.89
7,C54G U90G C95G A110G C118U,≤ -4.2
8,C54U U55G U82G,-1.38
9,C54U U146G,-0.826
10,C54U U146A,-0.881
11,U55A U56C G58A G92C A119U U145G,-2.87
12,U53G U135C,-3.23
13,U55A G84U G100U C108U U151A,≤ -4.2
14,U55A G140U,-2.9
15,C54A C76G A89U G92U U130G C149A U151A,≤ -4.2
16,U55C G92C,-0.135
17,C54A U127C,-2.28
18,C54A G74A G86C U102G A115C G126C,≤ -4.2
19,C54G A97U A106C,-2.99
20,U53G C103G,≤ -4.2
21,C54A G65C,≤ -4.2
22,U55A C85A G88C C108A G112C A142U,≤ -4.2
23,C54A A91G C93U U144A C149G U151G,≤ -4.2
24,C54U C79U G92U C95U G141C,-3.77

row,Variant,polymerase ribozyme fitness (log ratio)
1,U55A A110U,≤ -4.2
2,U53G G58A U82A A115U C116A,≤ -4.2
3,C54G G67A U77C C87A C99U U130G,≤ -4.2
4,U55A U77C C105A A107U U127G A137C,≤ -4.2
5,C54G U82G,-0.687
6,U55G C85A,-2.4
7,C54A C79A G100A,≤ -4.2
8,U53G C95U C105G G124A G152A,≤ -4.2
9,C54U G67U G86U C95A,≤ -4.2
10,U55A G84U A98C A110U U145A,≤ -4.2
11,C54G A91U,≤ -4.2
12,C54G A91G,-4.01
13,C54U A89U A91G C118U U134C,≤ -4.2
14,C54G G70A A91C U111C,≤ -4.2
15,C54U U55G C95A A119C U127G A142C,≤ -4.2
16,C54U G81U G83U G152U,-4.17
17,U55A A147C,-1.3
18,C54G C72U U135C,≤ -4.2
19,C54A G67U U90C C95G U127C,≤ -4.2
20,C54G G80U C103A,≤ -4.2
21,U55A G84C G88A G112C C114U,≤ -4.2
22,U53G C54U C96U A98G G133C G141U,-4.03
23,C54G C79U,≤ -4.2
24,C54A A60U C79G G83A C99A C129G A138C,≤ -4.2

row,Variant,polymerase ribozyme fitness (log ratio)
1,U55A U78A G86A,≤ -4.2
2,U53G G62A A64C,≤ -4.2
3,U55G C57G U101G,0.189
4,C54U U61G C87A A115U A122C,≤ -4.2
5,U55A C85U A122G A142G U145G,-2.39
6,C54U G86U A138G A142C U148G,≤ -4.2
7,U55A G62U A73G G86C,≤ -4.2
8,C54A G58A G94A A98U,-0.552
9,U53A G62A C76U C85G U111G,≤ -4.2
10,U55A C69A U77C A89G,≤ -4.2
11,U53A C76G C79A G92C C108U G143U,≤ -4.2
12,C54A C99U,-1.85
13,C54G C96U,-1.33
14,U53G C93A C103G,≤ -4.2
15,U55A C85A A119U U134A A142C,≤ -4.2
16,C54U U55A G83C G112A U148G,≤ -4.2
17,U53A U56A C93U G133C G140U U148A,≤ -4.2
18,C54U G62C C72G U134C,≤ -4.2
19,U55G G84U,-0.827
20,C54U C93U,-1.99
21,U53A G71U G86A G88A A89G U90C,≤ -4.2
22,U53A G71A A113G,≤ -4.2
23,C54G G94U C123U G133C,-2.38
24,C54U U130G,-3.73

row,Variant,polymerase ribozyme fitness (log ratio)
1,U55A C118G U134G,≤ -4.2
2,U53C A97U G136A C149G,≤ -4.2
3,U55A C72A C99U G126A U139C,≤ -4.2
4,U55A U134C,-0.296
5,U55A U134G,-1.99
6,U55G A97G,0.0201
7,C54A G81A C87U C96A,≤ -4.2
8,U53A C75G C103A G136U U144C,≤ -4.2
9,C54U G58C G59C G67C A119G G126A,≤ -4.2
10,U53G G74A A142C,≤ -4.2
11,U53A C96A C129G,-3.82
12,C54U G83A G84C A91C,≤ -4.2
13,U55A C96U A113C A142G U144G C149A,≤ -4.2
14,C54U U55G G92U C132G,≤ -4.2
15,C54A C103G A119G A138C,≤ -4.2
16,U55A C85U U148A,≤ -4.2
17,U53A G58C,-1.52
18,U53A G136A A137U U145C,≤ -4.2
19,C54A U55A C57A,0.336
20,C54A C85G C95G C114A U134G,≤ -4.2
21,C54A G92U U135G,-4.08
22,U53G U55G G86U C108U,≤ -4.2
23,U55A U145C,0.505
24,U55A G84U A106C U144C U146C,-4.16

row,Variant,polymerase ribozyme fitness (log ratio)
1,U55C G88A C103A,≤ -4.2
2,U55A C75G U77G A107U,≤ -4.2
3,U55A C96A A98C U139G C149A,≤ -4.2
4,C54G G65A C79U C85G A91U G136C,≤ -4.2
5,U53G A89G C93U,≤ -4.2
6,C54A C79A C87U U144C A150G U151A,≤ -4.2
7,U53G C79G C87A A89G,≤ -4.2
8,U55G C87A A120C A122C G124A C132U U148G,≤ -4.2
9,U55G C93G U127A,≤ -4.2
10,C54G U55A G67A C76G G86C,≤ -4.2
11,U55A U56C G67A G68C C85A C99G U111G G117A,≤ -4.2
12,U55A U82G,-0.931
13,C54U U56A C93A G100U,≤ -4.2
14,U53A G143A U146C,-2.83
15,U53C G58A G62C C85G,≤ -4.2
16,U53G U127A U135C,≤ -4.2
17,U55A G84A A119C G133U G143A,-4.03
18,C54A G136A,-0.852
19,U55A G81A C87U U135A U146A,-2.11
20,C54A G94U G140A,≤ -4.2
21,U53A C93U U130G,≤ -4.2
22,C54A G67C G80A G84A U135A,≤ -4.2
23,U55G C57G C95U C96A C118G,-2.53
